Measurements from patent EP3470429A1 (Numab Innovation AG, dated 2019).
Changes are numbered by the printed parent chain.

B1: PRO1126 (bispecific antibody)
chain: DFQLTQSPSSLSASVGDRVTITCQASQSINDYLAWYQQKPGKSPKLLIYKASTLASGVPSRFSGSGSGTDFTLTISSLQPEDFATYYCQQGYIITDIDNVFGTGTKVTVLGGGGGSQVQLQESGPGLVKPSETLSLTCKVSGFSFSNSYWICWIRQPPGKGLEWIGCTFVGSSDSTYYANWAKGRVTISVDSSKNQFSLKLSSVTAADTAVYYCARHPSDAVYGYANNLWGQGTLVTVSSGGGGSGGGGSGGGGSGGGGSIQMTQSPSSLSASVGDRVTITCQASQSINNVLAWYQQKPGKAPKLLIYRASTLASGVPSRFSGSGSGTDFTLTISSLQPEDFATYYCQSSYGNYGDFGTGTKVTVLGGGGGSQSQLQESGPGLVKPSETLSLTCKASGFSFSSGYDMCWVRQPPGKGLEWIACVVAGSVDITYYASWAKGRVTISKDSSKNQVSLKLSSVTAADTAVYFCARKDAYSDAFNLWGQGTLVTVSS
B2: PRO1123 (bispecific antibody)
chain: DIQMTQSPSSLSASVGDRVTITCQASQSINDYLAWYQQKPGKAPKLLIYKASTLASGVPSRFSGSGSGTDFTLTISSLQPEDFATYYCQQGYIITDIDNVFGTGTKVTVLGGGGGSQVQLQESGPGLVKPSETLSLTCKVSGFSFSNSYWICWVRQPPGKGLEWIGCTFVGSSDSTYYANWAKGRVTISVDSSKNQVSLKLSSVTAADTAVYFCARHPSDAVYGYANNLWGQGTLVTVSSGGGGSGGGGSGGGGSGGGGSIQMTQSPSSLSASVGDRVTITCQASQSINNVLAWYQQKPGKPPKLLIYRASTLASGVPSRFSGSGSGTDFTLTISSLQPEDFATYYCQSSYGNYGDFGTGTKVTVLGGGGGSQVQLQESGPGLVKPSETLSLTCKVSGFSFSSGYDMCWIRQPPGKGLEWIGCVVAGSVDITYYASWAKGRVTISVDSSKNQFSLKLSSVTAADTAVYYCARKDAYSDAFNLWGQGTLVTVSS
notes: also called 38-02-A04 sc05 IF scDb-i/33 03 G02 sc01 scDb-o
B3: PRO1124 (bispecific antibody)
chain: B2 chain with V140A, V190K, I261L
notes: also called 38-02-A04 sc06 Full scDb-i/33_03_G02 sc01 scDb-o
B4: PRO1060 (bispecific antibody, human IgG1, kappa, L234A L235A)
light: DIQMTQSPSSLSASVGDRVTITCQASQSINDYLAWYQQKPGKAPKLLIYKASTLASGVPSRFSGSGSGTDFTLTISSLQPEDFATYYCQQGYIITDIDNVFGTGTKVTVLGTVAAPSVFIFPPSDEQLKSGTASVVCLLNNFYPREAKVQWKVDNALQSGNSQESVTEQDSKDSTYSLSSTLTLSKADYEKHKVYACEVTHQGLSSPVTKSFNRGEC
heavy: QVQLQESGPGLVKPSETLSLTCKVSGFSFSSGYDMCWIRQPPGKGLEWIGCVVAGSVDITYYASWAKGRVTISVDSSKNQFSLKLSSVTAADTAVYYCARKDAYSDAFNLWGQGTLVTVSSASTKGPSVFPLAPSSKSTSGGTAALGCLVKDYFPEPVTVSWNSGALTSGVHTFPAVLQSSGLYSLSSVVTVPSSSLGTQTYICNVNHKPSNTKVDKRVEPKSCDKTHTCPPCPAPEAAGGPSVFLFPPKPKDTLMISRTPEVTCVVVDVSHEDPEVKFNWYVDGVEVHNAKTKPREEQYNSTYRVVSVLTVLHQDWLNGKEYKCKVSNKALGAPIEKTISKAKGQPREPQVYTLPPSREEMTKNQVSLTCLVKGFYPSDIAVEWESNGQPENNYKTTPPVLDSDGSFFLYSKLTVDKSRWQQGNVFSCSVMHEALHNHYTQKSLSLSPGKGGGGSGGGGSIQMTQSPSSLSASVGDRVTITCQASQSINNVLAWYQQKPGKAPKLLIYRASTLASGVPSRFSGSGSGTDFTLTISSLQPEDFATYYCQSSYGNYGDFGTGTKVTVLGGGGGSGGGGSGGGGSGGGGSQVQLQESGPGLVKPSETLSLTCKVSGFSFSNSYWICWIRQPPGKGLEWIGCTFVGSSDSTYYANWAKGRVTISVDSSKNQFSLKLSSVTAADTAVYYCARHPSDAVYGYANNLWGQGTLVTVSS

Assays:
Experiment in all cases: cell-based or functional assay
[1] = biological target: T1, CD137 on the transgenic NFkB Jurkat reporter cell line (UniProt Q07011 24-255, limits assumed)
[2] = biological target: T1, CD137 on the transgenic NFkB Jurkat …; remark: listed apart in the source
[3] = biological target: T1, CD137 on the transgenic NFkB Jurkat …; remark: listed apart in the source
[4] = biological target: T1, CD137 on the transgenic NFkB Jurkat …; remark: listed apart in the source
[5] = biological target: T1, CD137 on the transgenic NFkB Jurkat …; remark: listed apart in the source
[6] = biological target: T1, CD137 on the transgenic NFkB Jurkat …; remark: listed apart in the source

Binder | EC50 in ng/ml, NFkB-Luciferase reporter, CHO-PD-L1 cells [1] [ng/mL] | EC50 in ng/ml, NFkB-Luciferase reporter, HCC827 cells without IFNg [2] [ng/mL] | EC50 in ng/ml, NFkB-Luciferase reporter, HCC827 cells stimulated with IFNg [3] [ng/mL] | EC50 in ng/ml, NFkB-Luciferase reporter, PD-L1 expressing CHO cells (6h) [4] [ng/mL] | EC50 in ng/ml, NFkB-Luciferase reporter, HCC827 with IFNy stimulation [5] [ng/mL] | EC50 in ng/ml, NFkB-Luciferase reporter, HCC827 without IFNy stimulation [5] [ng/mL] | EC50 in ng/ml, NFkB-Luciferase reporter, PD-L1 expressing CHO cells (24h) [6] [ng/mL]
B1 | 6 | 6.97 | 5.48 |  |  |  | 
B2 | 5.75 | 16.1 | 11.9 |  |  |  | 
B3 | 3.68 | 5.62 | 4.83 |  |  |  | 
B4 |  |  |  | 56.4 | 17.5 | 13.6 | 80.8
